# Laboratory results published in the RNAGym collection of RNA variant scans (doi:10.1093/nar/gkz1192).
# The source gives no read counts; variants with many changes may rest on few reads.
# B1: CPEB3 Ribozyme (parent)
# chain: UAACAGGGGGCCACAGCAGAAGCGUUCACGUCGCAGCCCCUGUCAGAUUCUGGUGAAUCUGCGAAUUCUGCUGUAUAUCUC
# Variants of: B1
# Experiment: self-cleavage, relative activity (ratio to wild type); higher = more cleavage; in vitro, sequencing
# Procedure, shortened: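 Barcoded CPEB3 ribozyme mutants, produced by rounds of error-prone PCR, self-cleaved while being transcribed with T7 RNA polymerase for 5 hours at 37°C and during a subsequent 15 min DNase I step before EDTA was added. Sequencing of template-switched cDNA on Illumina gave cleaved and total reads, and DNA sequencing assigned barcodes to variants. Each variant's relative activity is its cleaved/total read fraction divided by the unmutated ribozyme's fraction, averaged across three batches. A variant needed a minimum of 5 reads.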
row,Variant,self-cleavage
1,UAACAGGGGGCCACAGCAGAAGCGUUCACGUCGCAGCCCCUGUCAGAUCCUGGUGAACCUGUGAAUUCUGUUGUAUAUCUC [U49C U58C C62U C71U],0.06
2,UAACAGGGGGCCACAGCAGAAGCGUUCACGUCGCAGCCCCUGUCAGAUCCUGGUGAACCUGCGAAUUCUGUUGUAUAUCUC [U49C U58C C71U],0.15
3,UAACAGGGGGCCACAGCAGAAGCGUUCACGUCGCAGCCCCUGUCAGAUCCUGGUGAACCCGCGAAUUCUGCUGUAUAUCCC [U49C U58C U60C U80C],0.35
4,UAACAGGGGGCCACAGCAGAAGCGUUCACGUCGCAGCCCCUGUCAGAUCCUGGUGAACCUGCGAAUUCGGCUGUAUACCUC [U49C U58C U69G U78C],0.04
5,UAACAGGGGGCCACAGCAGAAGCGUUCACGUCGCAGCCCCUGUCAGAUCCUGGUGAAUCAGCGAAUCCUGCUGUAUAUCUC [U49C U60A U67C],0.08
6,UAACAGGGGGCCACAGCAGAAGCGUUCACGUCGCAGCCCCUGUCAGAUCCUGGUGAAUCCGCGAAUUCCGCUGUAUAUCCC [U49C U60C U69C U80C],0.1
7,UAACAGGGGGCCACAGCAGAAGCGUUCACGUCGCAGCCCCUGUCAGAUCCUGGUGAAUCUGCGAAAUCUGCUGUAUAGCUC [U49C U66A U78G],0.16
8,UAACAGGGGGCCACAGCAGAAGCGUUCACGUCGCAGCCCCUGUCAGAUCCUGGUGAAUCUGCGAACUCUGCUGUAUAUCAC [U49C U66C U80A],0.08
9,UAACAGGGGGCCACAGCAGAAGCGUUCACGUCGCAGCCCCUGUCAGAUCCUGGUGAAUCUGCGAAUACCGCUGUAUUCCCC [U49C U67A U69C A77U U78C U80C],0.13
10,UAACAGGGGGCCACAGCAGAAGCGUUCACGUCGCAGCCCCUGUCAGAUCCUGGUGAAUCUGCGAAUCCUGCUGUUUAUCUC [U49C U67C A75U],0.16
11,UAACAGGGGGCCACAGCAGAAGCGUUCACGUCGCAGCCCCUGUCAGAUCCUGGUGAAUCUGCGAAUCCUGCUGUAUUUCUC [U49C U67C A77U],0.15
12,UAACAGGGGGCCACAGCAGAAGCGUUCACGUCGCAGCCCCUGUCAGAUCCUGGUGAAUCUGCGAAUUCAGCUGUGUAUCUC [U49C U69A A75G],0.34
13,UAACAGGGGGCCACAGCAGAAGCGUUCACGUCGCAGCCCCUGUCAGAUCCUGGUGAAUCUGCGAAUUCAGCUGUAUAUCUA [U49C U69A C81A],0.24
14,UAACAGGGGGCCACAGCAGAAGCGUUCACGUCGCAGCCCCUGUCAGAUCCUGGUGAAUCUGCGAAUUCUGCCGUACAUCUC [U49C U72C U76C],0.4
15,UAACAGGGGGCCACAGCAGAAGCGUUCACGUCGCAGCCCCUGUCAGAUCCUGGUGAAUCUGCGAAUUCUGCCGUAUAUCCC [U49C U72C U80C],0.61
16,UAACAGGGGGCCACAGCAGAAGCGUUCACGUCGCAGCCCCUGUCAGAUCCUGGUGAAUCUGCGAAUUCUGCUGAAUACCUC [U49C U74A U78C],0.65
17,UAACAGGGGGCCACAGCAGAAGCGUUCACGUCGCAGCCCCUGUCAGAUCCUGGUGAAUCUGCGAAUUCUGCUGUAAAUCAC [U49C U76A U80A],0.23

row,Variant,self-cleavage
1,UAACAGGGGGCCACAGCAGAAGCGUUCACGUCGCAGCCCCUGUCAGAUCCUGGUGAAUCUGCGAAUUCUGCUGUACAUUUC [U49C U76C C79U],0.49
2,UAACAGGGGGCCACAGCAGAAGCGUUCACGUCGCAGCCCCUGUCAGAUCCUGGUGAAUCUGCGAAUUCUGCUGUAUAUCAU [U49C U80A C81U],0.52
3,UAACAGGGGGCCACAGCAGAAGCGUUCACGUCGCAGCCCCUGUCAGAUGCUGGUGUAUCUGCGAAUUCAGCCUUAUAUCUC [U49G A56U U69A U72C G73U],0.31
4,UAACAGGGGGCCACAGCAGAAGCGUUCACGUCGCAGCCCCUGUCAGAUGGCGGUGGAUCUGCGAAUUCUGCUGUAUAUCUC [U49G C50G U51C A56G],0.19
5,UAACAGGGGGCCACAGCAGAAGCGUUCACGUCGCAGCCCCUGUCAGAUGCUAGUGAAUCUGCGAAUUCUGCUGUAUAUUUC [U49G G52A C79U],0.85
6,UAACAGGGGGCCACAGCAGAAGCGUUCACGUCGCAGCCCCUGUCAGAUGCAGGUAAAUCAGCGAAUUCUGCUGAAUAUCUC [U49G U51A G55A U60A U74A],0.1
7,UAACAGGGGGCCACAGCAGAAGCGUUCACGUCGCAGCCCCUGUCAGAUUAUGGUGGGUCUGCGAAUUCUGCUGUAUAUCUC [C50A A56G A57G],0.17
8,UAACAGGGGGCCACAGCAGAAGCGUUCACGUCGCAGCCCCUGUCAGAUUAUGGUGAAUCUACGAAUUCCGCUGUAUAUCUC [C50A G61A U69C],0.38
9,UAACAGGGGGCCACAGCAGAAGCGUUCACGUCGCAGCCCCUGUCAGAUUACCGCGAAUCUGCGAAUUCUGCUGUAUAUCUU [C50A U51C G52C U54C C81U],1.2
10,UAACAGGGGGCCACAGCAGAAGCGUUCACGUCGCAGCCCCUGUCAGAUUACGGUGAAUCUGCGAAUUCUGCUGUAUAUCAC [C50A U51C U80A],0.99
11,UAACAGGGGGCCACAGCAGAAGCGUUCACGUCGCAGCCCCUGUCAGAUUAUGGCGGAUCCGCGAAUUCUGCUGUAUAUCUC [C50A U54C A56G U60C],0.15
12,UAACAGGGGGCCACAGCAGAAGCGUUCACGUCGCAGCCCCUGUCAGAUUAUGGUGAAUCUGCGAACUCUGCUGUGUAUCUC [C50A U66C A75G],0.39
13,UAACAGGGGGCCACAGCAGAAGCGUUCACGUCGCAGCCCCUGUCAGAUUAUGGUGAAUCUGCGAAUUCUGCUGUAUAACAC [C50A U78A U80A],1.12
14,UAACAGGGGGCCACAGCAGAAGCGUUCACGUCGCAGCCCCUGUCAGAUUGUGUUGGAUCUGCGAAUUCUGCUGUGUAUCUC [C50G G53U A56G A75G],0.57
15,UAACAGGGGGCCACAGCAGAAGCGUUCACGUCGCAGCCCCUGUCAGAUUUUGGUGGAUCUGCGAAUUCAGCUGUAUAUCUC [C50U A56G U69A],0.2
16,UAACAGGGGGCCACAGCAGAAGCGUUCACGUCGCAGCCCCUGUCAGAUUUUGGUGAGUCCGCGAAUUCUGCUGUACAUCUC [C50U A57G U60C U76C],0.25
17,UAACAGGGGGCCACAGCAGAAGCGUUCACGUCGCAGCCCCUGUCAGAUUUUGGUUAAUCUGCGAAUUCUGCUCUAUGUCUC [C50U G55U G73C A77G],1.32
